In the supplement of paper PMC7826260:
This is one part of the list. The data describe in vitro nicking of single-stranded DNA by Rep domains (3 µM enzyme, 1 h, 37 °C); shown is the middle of each 90-letter strand. The score is log2 (uncut reads / reads without enzyme); more negative means more cut, near 0 not cut, and no call is made. Because reads are shares of a total, they shift together; values above 0 arise when much of the pool is cut.

Tests used:
Assay in all cases: uncleaved DNA left, log2 of reads against the no-enzyme library (log2 ratio); higher = less cleavage (more negative = more Rep cleavage of the k-mer); sequences stand for … in CTCGTCCG…ACCGGAGA
[1] = test system: T1, Rep nickase domain of Muscovy duck circovirus
T1 sequence (Rep 1-111, printed without the tag): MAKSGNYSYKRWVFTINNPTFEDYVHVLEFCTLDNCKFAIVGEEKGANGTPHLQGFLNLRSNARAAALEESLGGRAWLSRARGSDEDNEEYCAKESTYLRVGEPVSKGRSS
Procedure: (§1)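 A pool of 90-nt single-stranded DNAs with seven random bases just before the constant AC of the nick site (name = the seven bases) was cut by 3 µM recombinant His6-SUMO-tagged Rep nickase domain (300 nM DNA, 50 mM HEPES pH 8.0, 50 mM NaCl, 1 mM MnCl2, 1 h, 37 °C, three replicates). Uncut DNA was amplified and sequenced.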

[2] = test system: T2, Rep nickase domain of banana bunchy top virus
T2 sequence (Rep 1-94, printed without the tag): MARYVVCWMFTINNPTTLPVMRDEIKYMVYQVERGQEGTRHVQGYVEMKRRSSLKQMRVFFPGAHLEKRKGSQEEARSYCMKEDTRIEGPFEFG
Procedure: as §1

[3] = test system: T3, Rep nickase domain of cabbage leaf curl virus
T3 sequence (Rep 1-116, printed without the tag): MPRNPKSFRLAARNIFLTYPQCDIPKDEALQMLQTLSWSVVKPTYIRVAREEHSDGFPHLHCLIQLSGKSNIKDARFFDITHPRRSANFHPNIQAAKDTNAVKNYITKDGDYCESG
Procedure: as §1

[4] = test system: T4, Rep nickase domain of chickpea chlorotic dwarf virus
T4 sequence (Rep 1-124, printed without the tag): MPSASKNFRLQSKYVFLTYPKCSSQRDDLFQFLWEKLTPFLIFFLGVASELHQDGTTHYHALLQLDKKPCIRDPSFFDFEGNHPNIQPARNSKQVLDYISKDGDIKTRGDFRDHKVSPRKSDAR
Procedure: as §1

[5] = test system: T5, Rep nickase domain of faba bean necrotic yellows virus
T5 sequence (Rep 1-98, printed without the tag): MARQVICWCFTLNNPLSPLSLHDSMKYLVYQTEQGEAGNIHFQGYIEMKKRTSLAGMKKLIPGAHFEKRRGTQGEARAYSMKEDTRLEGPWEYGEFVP
Procedure: as §1

[6] = test system: T6, Rep nickase domain of maize striate mosaic virus
T6 sequence (Rep 1-117, printed without the tag): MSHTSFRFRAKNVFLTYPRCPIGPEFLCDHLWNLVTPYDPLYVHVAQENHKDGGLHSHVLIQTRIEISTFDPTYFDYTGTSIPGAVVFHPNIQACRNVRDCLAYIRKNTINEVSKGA
Procedure: as §1

[7] = test system: T7, Rep nickase domain of porcine circovirus 2
T7 sequence (Rep 2-116, printed without the tag): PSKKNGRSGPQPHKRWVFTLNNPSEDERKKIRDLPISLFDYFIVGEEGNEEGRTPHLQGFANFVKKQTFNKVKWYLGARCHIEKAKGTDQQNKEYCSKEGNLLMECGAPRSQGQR
Procedure: as §1

[8] = test system: T8, Rep nickase domain of tomato golden mosaic virus
T8 sequence (Rep 1-124, printed without the tag): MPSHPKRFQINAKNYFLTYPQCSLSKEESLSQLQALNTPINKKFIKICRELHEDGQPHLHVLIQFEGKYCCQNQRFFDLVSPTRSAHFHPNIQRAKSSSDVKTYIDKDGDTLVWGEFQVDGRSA
Procedure: as §1

[9] = test system: T9, Rep nickase domain of tomato yellow leaf curl virus
T9 sequence (Rep 1-136, printed without the tag): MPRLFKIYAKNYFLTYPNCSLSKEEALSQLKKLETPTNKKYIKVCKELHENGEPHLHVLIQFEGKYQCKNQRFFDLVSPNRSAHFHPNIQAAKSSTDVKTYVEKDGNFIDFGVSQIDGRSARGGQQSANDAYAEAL
Procedure: as §1

[10] = test system: T10, Rep nickase domain of wheat dwarf virus
T10 sequence (Rep 1-137, printed without the tag): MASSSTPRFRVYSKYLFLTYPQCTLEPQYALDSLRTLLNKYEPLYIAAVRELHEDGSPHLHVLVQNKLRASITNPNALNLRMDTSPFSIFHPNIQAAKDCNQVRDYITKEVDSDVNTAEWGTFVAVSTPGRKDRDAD
Procedure: as §1

Row | Sequence | uncleaved DNA left (log2) [1] | uncleaved DNA left (log2) [2] | uncleaved DNA left (log2) [3] | uncleaved DNA left (log2) [4] | uncleaved DNA left (log2) [5] | uncleaved DNA left (log2) [6] | uncleaved DNA left (log2) [7] | uncleaved DNA left (log2) [8] | uncleaved DNA left (log2) [9] | uncleaved DNA left (log2) [10]
1 | CACGCTC | -0.071 | -0.112 | -0.183 | -0.896 | -0.0485 | -0.685 | -0.0775 | -0.0392 | -0.146 | -0.116
2 | AATGCGC | 0.0673 | -0.0524 | -0.704 | 0.549 | 0.154 | -0.588 | 0.109 | -0.101 | 0.0785 | -0.0162
3 | TTCACCT | -0.0673 | 0.0447 | 0.133 | -1.99 | 0.00116 | 0.0968 | -0.47 | -0.0746 | 0.0567 | 0.0556
4 | AAGTTAC | -0.0556 | -0.163 | -0.344 | -1.88 | -0.0191 | -0.706 | -1.48 | -0.0835 | -0.154 | -0.0524
5 | TAACCTA | -0.272 | -0.0619 | -1.47 | -3.08 | -0.0996 | -0.935 | -1.13 | -0.264 | -0.0599 | -0.539
6 | GGGCTCG | 0.221 | 0.127 | 0.544 | 1.14 | 0.0229 | 1.26 | 0.241 | 0.0793 | 0.0496 | 0.189
7 | GGTTGCA | 0.00267 | 0.00952 | -0.0266 | 0.194 | 0.0342 | -0.181 | 0.151 | -0.00801 | 0.0643 | -0.0177
8 | ATCATCT | -0.039 | -0.00227 | -0.202 | -2.27 | -0.00672 | -0.91 | -0.233 | 0.0552 | 0.0519 | -0.0105
9 | CCAGCGG | -0.0482 | 0.0393 | 0.416 | 1.2 | 0.0102 | 1.11 | 0.0581 | 0.149 | -0.0671 | 0.0465
10 | GGCACCC | 0.0202 | -0.0274 | 0.377 | 1.01 | -0.105 | 1.61 | -0.17 | -0.109 | -0.0391 | 0.0661
11 | AGGATGT | 0.0874 | 0.0478 | 0.448 | 1.28 | 0.0702 | 1.54 | 0.161 | 0.0721 | -0.00054 | 0.0659
12 | CACCGAG | -0.0106 | 0.0208 | 0.725 | 1.62 | -0.0717 | 0.754 | 0.227 | 0.0977 | 0.112 | 0.166
13 | ACCACGA | 0.0206 | -0.113 | -0.286 | -0.403 | -0.0674 | -1.04 | -0.101 | -0.103 | -0.249 | -0.28
14 | ATTAAAA | 0.0793 | 0.183 | 0.121 | 0.129 | 0.103 | -0.568 | 0.135 | 0.0668 | 0.115 | 0.122
15 | TAGCCAC | 0.0401 | -0.0415 | 0.0433 | -0.132 | -0.137 | -0.364 | -0.311 | -0.115 | 0.0433 | -0.0384
